Out of some 52,000 compounds screened, about 4,300 (8.3%) were called active. Cut-off read from the data, not from the text of the source: active = survival mostly below about 52% (no sharp cut-off); inactive = mostly above about 56%. The list shows a part of the results.
tested on: DeltatarO mutant; test: growth inhibition of S. aureus wild type versus tarO mutant, primary screen, teichoic acid synthesis inhibitors, RN4220, OD600 (AID 463173); conditions: OD600, 18 h, stronger effect = lower value, screened at 18.75 µg/mL (by protocol)

SMILES | survival
COc1ccc(Nc2cc(C(=O)NCCCN3CCN(c4ccccc4F)CC3)c3ccccc3n2)c(OC)c1 | active: 48%
Cc1ccc(-c2ccc(=O)n(CCC(=O)NCCc3ccccc3)n2)cc1 | inactive: 83%
CCN(CC)CCNC(=O)c1cc2c(=O)n(C)c3cc(Cl)ccc3c2s1 | inactive: 89%
CCOC(=O)c1[nH]c(C)c(CCC(=O)NCc2ccc(CC)cc2)c1C | inactive: 62%
O=C1CSC2(C(=O)N(Cc3cccc(F)c3)c3ccccc32)N1c1cccc(C(F)(F)F)c1 (stereo not given) | inactive: 75%
CC(C)COc1ccc(C(=O)N2CCN(CCc3ccncc3)CC2)cc1 | inactive: 52%
COc1ccc(N(C)C(=O)c2cn(C)c(=O)c3cc(OC)c(OC)cc23)cc1 | inactive: 177%
Cc1ccc(Cn2c(CO)cnc2SCC(=O)Nc2ccc(C)c(Cl)c2)cc1 | active: -5%
COc1ccc(NC(=O)c2ccc3nc(C(C)C)oc3c2)cc1OC | inactive: 86%
CCn1cc(C(=O)N2CCN(c3ccccc3)CC2)c(=O)c2cc(S(=O)(=O)N3CCOCC3)ccc21 | inactive: 86%
CCC(Oc1ccc(F)cc1)C(=O)Nc1c(C(=O)c2ccc(C)cc2)oc2ccccc12 (stereo not given) | inactive: 89%
CCn1c2c(c(=O)n3ncc(C(=O)N4CCN(c5ccc(Cl)cc5)CC4)c13)CN(Cc1ccc(OC)cc1)CC2 | inactive: 101%
c1cnc2c(c1)NC1(CCCCC1)N2 | inactive: 86%
COC(=O)c1cc2oc3ccccc3c2n1Cc1ccc(Cl)cc1 | inactive: 76%
COc1ccc(C(=O)CSc2nnc(-c3ccoc3C)n2CC(C)C)cc1 | inactive: 66%
COc1ccc(-c2nc3scc(CCNS(=O)(=O)c4ccc(F)cc4C)n3n2)cc1 | inactive: 84%
Cc1c(C(=O)Nc2ccccc2)sc2nc(-c3cc4cc(Cl)ccc4oc3=O)[nH]c(=O)c12 | active: 45%
COc1cccc(N2CCN(C(=O)C3CCN(S(=O)(=O)c4c(C)noc4/C=C/c4ccccc4F)CC3)CC2)c1 | inactive: 77%
CCC(=O)Nc1ccccc1-c1nc2ccccc2n(CC(=O)Nc2ccccc2OC)c1=O | inactive: 61%
Cc1ccccc1C(=O)Nc1ccc2nc(N3CCCCC3)cc(C)c2c1 | active: 32%
CCc1ccccc1N/C=C(\C#N)c1nc2ccccc2[nH]1 | inactive: 95%
CC1CCN(C(=O)C(C)Sc2nnc3c(n2)[nH]c2ccccc23)CC1 (stereo not given) | inactive: 102%
COc1ccc(NC(=O)Cn2cc(S(=O)(=O)c3ccccc3)c(=O)c3cc4c(cc32)OCO4)cc1 | inactive: 67%
CCN1CCc2c(sc(-n3cccc3)c2C(C)NC(=O)Nc2ccc(Br)cc2)C1 (stereo not given) | inactive: 102%
CCCC(=O)OCc1cnc(C)c2oc(=O)c(C(=O)Nc3cccc(C(F)(F)F)c3)cc12 | inactive: 87%
Cc1cccc(N2CCN(C(=O)C3CCN(S(=O)(=O)c4c(C)noc4C)CC3)CC2C)c1 (stereo not given) | inactive: 100%
COc1ccc(N(Cc2cccs2)C(=O)c2ccc(OC)c(Cl)c2)cc1 | inactive: 59%
CCc1nnc(NC(=O)CSC2=NC(=O)C(NC(C)=O)C(=O)N2)s1 (stereo not given) | inactive: 99%

SMILES | survival
COc1ccc(CC(NC(C)=O)C(=O)NC2CCN(c3nc(OC)nc(OC)n3)CC2)cc1 (stereo not given) | inactive: 88%
COc1cc(CNC(=O)c2ccc3c(c2)c(C)c(C)n3Cc2cccc(C)c2)cc(OC)c1OC | inactive: 102%
CCN(CC)C(=O)c1sc2c(c1C)c(=O)n(CCc1ccccc1)c(=O)n2Cc1cc(C)ccc1C | inactive: 81%
CC(C)(C)C(=O)NCC(c1ccc2c(c1)OCO2)N1CCOCC1 (stereo not given) | active: 0%
O=C(NCCc1ccc(Cl)cc1)c1ccc(CS(=O)(=O)c2ccc(Cl)cc2)o1 | inactive: 74%
Cc1cccc(C)c1NC(=O)C(NS(=O)(=O)c1cccs1)c1ccccc1 (stereo not given) | inactive: 56%
O=C(Cn1ccn(-c2ccc(F)cc2)c(=O)c1=O)Nc1ccc(F)cc1 | inactive: 60%
Cc1cc(C)c2c(c1)c(C)cc1nnc(SCc3ccccc3C#N)n12 | inactive: 68%
CC1=C(C(=O)Nc2ccc(Cl)cc2)C(c2ccccc2)n2ncc(C(=O)Nc3ccccc3)c2N1 (stereo not given) | inactive: 64%
Cc1ccc(C)c(Cn2c(=O)c3c(nc4n3CCN4c3ccccc3)n(C)c2=O)c1 | inactive: 79%
Cc1ccc(NC(=O)CN2C(=O)COc3ccc(S(=O)(=O)NC4CCCC4)cc32)cc1N(C)C | inactive: 84%
CC(=O)N1CCc2c(sc3c2c(=O)n(CCc2ccccc2)c(=O)n3Cc2ccccc2C)C1 | inactive: 85%
CC(=O)Nc1n[nH]c(-c2ccc(C)cc2)c1C | inactive: 94%
CCSc1ncc(Cl)c(C(=O)Nc2sc3c(c2C(=O)NCCCOC)CCCC3)n1 | inactive: 108%
COc1ccc(NC(=O)CSc2nc(-c3cccc(C)c3)[nH]c2-c2ccccc2)cc1OC | inactive: 51%
CCOC(=O)c1nc(NCc2ccc(Cl)cc2)c2c(C)noc2n1 | inactive: 87%
CCC(=O)C1=C(c2ccc(C)cc2)N(C(=O)CC)n2c(nnc2C2CCCCC2)S1 | inactive: 87%
CC(=O)N1CCc2cc(S(=O)(=O)NC(CC(C)C)C(=O)Nc3cc(C)cc(C)c3)ccc21 (stereo not given) | inactive: 79%
Cc1cccc(C)c1NC(=O)CS(=O)(=O)c1nc(-c2ccc(Cl)cc2)cn1-c1ccccc1 | inactive: 56%
Cc1c(Cl)cccc1NC(=O)CCOc1ccccc1 | inactive: 142%
CCOc1ccc(Cn2c(=O)sc3ccccc32)cc1 | inactive: 85%
COc1cc(C2CC(=O)Oc3c2c(=O)[nH]c2ccccc32)cc(OC)c1OC (stereo not given) | inactive: 75%
Cc1ccc(-c2cc3nc(-c4ccccc4)cc(C(F)(F)F)n3n2)cc1 | inactive: 69%
O=C(Oc1ccccc1F)c1nc(SCc2ccc(F)cc2)ncc1Cl | inactive: 93%
CCOc1ccc(Nc2c(S(=O)(=O)c3ccccc3)cnc3ccc(F)cc23)cc1 | inactive: 92%
CC(=O)N1CCc2cc(Br)cc(S(=O)(=O)CCC(=O)N3CCN(c4ccccc4Cl)CC3)c21 | inactive: 61%
COc1ccc(-c2nc3scc(CCNS(=O)(=O)c4ccc5c(c4)OCCO5)n3n2)cc1 | inactive: 84%

— PubChem BioAssay AID463173 (ICCB-Longwood Screening Facility, Harvard Medical School, 2010)
